Reference: publication PMC6919601, “Identification of Plasmodium dipeptidyl aminopeptidase allosteric inhibitors by high throughput screening” (PLoS ONE, 2019)
Screen size: about 110,000 compounds; about 230 (0.21%) showed an effect of 50% or more. This is one part of the list.

What follows are compounds tested against DPAP1 (Plasmodium falciparum, UniProt Q8IIJ9) (assay: primary screen, percent inhibition; read by cleavage of a fluorogenic dipeptide substrate; higher = more effect of the substance).
Sequence of DPAP1 (Q8IIJ9 whole entry, looked up): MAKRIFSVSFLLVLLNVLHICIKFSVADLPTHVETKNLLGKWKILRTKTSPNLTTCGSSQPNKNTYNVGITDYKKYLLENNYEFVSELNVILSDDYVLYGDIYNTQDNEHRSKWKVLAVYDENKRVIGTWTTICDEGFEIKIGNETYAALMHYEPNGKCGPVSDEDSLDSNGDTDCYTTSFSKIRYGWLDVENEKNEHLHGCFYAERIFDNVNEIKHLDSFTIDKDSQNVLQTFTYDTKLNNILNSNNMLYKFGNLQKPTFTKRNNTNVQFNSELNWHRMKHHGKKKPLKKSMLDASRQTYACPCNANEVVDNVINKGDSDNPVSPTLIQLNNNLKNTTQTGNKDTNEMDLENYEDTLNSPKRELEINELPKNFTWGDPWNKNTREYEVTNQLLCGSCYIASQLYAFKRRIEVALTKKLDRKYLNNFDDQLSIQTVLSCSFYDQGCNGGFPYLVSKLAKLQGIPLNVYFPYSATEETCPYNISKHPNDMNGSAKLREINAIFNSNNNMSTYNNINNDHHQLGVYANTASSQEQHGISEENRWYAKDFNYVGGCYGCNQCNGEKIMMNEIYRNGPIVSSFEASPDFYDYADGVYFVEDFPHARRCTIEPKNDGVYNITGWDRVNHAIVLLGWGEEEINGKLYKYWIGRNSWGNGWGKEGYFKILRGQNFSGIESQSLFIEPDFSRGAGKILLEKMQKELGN
Set-up: species or system P. falciparum D10 trophozoite lysates; single well
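Also: 30 min substrate incubation versus DMSO and 10 µM JCP410 controls.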

SMILES | % Inhibition @ 10 uM
O=C1C2CC=C(Cl)CC2C(=O)N1CCN1CCCCC1 (stereo not shown) | 6.69%
CSc1ccccc1NC(=O)C1C2CCC(C2)C1C(=O)O (stereo not shown) | -0.996%
COCCNC(=O)C1=Cc2sc3c(c2CS1)CCCC3 | 3.54%
N#CC1=C(N)Oc2[nH]nc(-c3ccc4ccccc4c3)c2C1c1ccncc1 (stereo not shown) | -3.16%
Cc1cc(-c2ccc(S(=O)(=O)N3CCN(C4CCCCC4)CC3)s2)on1 | -5.5%
CC(C)C[C@H](NC(=O)OCc1ccccc1)C(=O)N[C@@H](CCc1ccccc1)C(=O)C(C)(C)O | 0.744%
Nc1cnn(C2OC(CO)C(O)C2O)c(=O)n1 (stereo not shown) | -1.26%
O=C(C1CCN(S(=O)(=O)c2c[nH]cn2)CC1)N1CCC(Cc2ccccc2)CC1 | -2.29%
Cc1onc(-c2ccccc2)c1C(=O)N1CCN(C)CC1 | -2.2%
Cc1ccc(Oc2nc3ccccn3c(=O)c2/C=C(\C#N)C(=O)NC2CCCC2)cc1 | -6.23%
O=C(NCCc1ccccc1)c1cc2ccccc2o1 | -2.27%
O=C(NCc1ccncc1)c1ccc(Br)cc1 | -3.82%
CCNC(=O)COc1ccc(S(=O)(=O)NC2CCCCC2)cc1 | 2.17%
CCOc1ccccc1/C=C1/SC(=O)N(CN2CCCCC2)C1=O | -0.63%
CCCCOc1ccc(NS(=O)(=O)c2ccc(Br)cc2C)cc1 | 2.7%
C=CC/N=C/C1=C(O)CC(C)(C)CC1=O | -3.06%
CC(NC(=O)C1(S(=O)(=O)c2ccc(Cl)cc2)CC1)c1ccccc1 (stereo not shown) | -0.0508%
CC1(C)CC(=O)C(CCC#N)C(=O)C1 | -1.8%
CCCCNC(=O)CN(C)S(=O)(=O)c1cc(Cl)ccc1Cl | 0.755%
c1ccc(C2CCCN(c3ncnc4[nH]cnc34)C2)cc1 (stereo not shown) | -3.24%
CCN1CCN(Cc2ccc(Br)o2)CC1 | 4.57%
C/C(Nc1ccc(Cl)cc1)=C1\C(=O)NC(=O)N(Cc2ccccc2)C1=O | 4.33%
C=CCNC(=O)/C(C#N)=C/c1c(Oc2ccccc2OC)nc2ccccn2c1=O | 3.63%
Cc1nn(-c2ccccc2)c(C)c1Sc1ccc([N+](=O)[O-])cc1 | 11.3%
COc1ccc(C(=O)/C=C/c2ccc3c(c2)OCO3)c(OC)c1 | -1.25%

SMILES | % Inhibition @ 10 uM
C#CCN(C)CC(=O)Nc1ccc(Br)cc1 | 0.215%
Cc1nc2ccc(S(=O)(=O)CCC(=O)NCc3cccs3)cc2s1 | -5.88%
CCc1c(C#N)c(SCCC(=O)Nc2ccc(OC)cc2)nc2c1C(=O)CC(C)(C)C2 | -11.9%
COc1ccccc1OCC(=O)Nc1ccc(NC(C)=O)cc1 | 4.31%
Cc1nc(N2CCC(C)CC2)c2c(C)c(C(=O)NCC3COc4ccccc4O3)sc2n1 (stereo not shown) | 2.38%
Cn1c(SCC(N)=O)nc2c(c1=O)SCC2 | 0.205%
CCCN1CCN(C(=O)C2CCN(c3nn4cc(-c5ccc(OC)cc5)nc4s3)CC2)CC1 | -1.41%
C=CCOC(=O)C1=C(C)NC(=O)NC1c1cccc(Oc2ccccc2)c1 (stereo not shown) | -3.69%
CCCc1cc(O)nc(SCC(=O)Nc2ccc(C)cc2C)n1 | -1.04%
CCOc1cccc(-c2nc(O)c3c(n2)Oc2c(cccc2OC)C3)c1O | 3.92%
C=CCN1C(=O)/C(=C/Nc2ccc(O)cc2)C(=O)N(CCCC)C1=O | 4.01%
N#Cc1c(-c2cccc(Br)c2)cc(-c2ccccc2)nc1N | 3.48%
O=C(O)CCC(=O)Nc1ccc(Br)cn1 | 1.66%
CCNC(=O)/C(=C\c1ccc(OC)cc1)NC(=O)c1ccccc1OC | 3.96%
CC1(C)OC(=O)N(CCCCCCN2C(=O)OC(C)(C)C2(C)O)C1(C)O (stereo not shown) | -3.42%
O=[N+]([O-])c1cccc(/C=C/C2=CCN(CC(O)c3ccccc3)CC2)c1 (stereo not shown) | 3.9%
CC1Cn2c(C(=O)NC(C)c3ccccc3)cc3c(Cl)ccc(c32)O1 (stereo not shown) | -3.34%
C/N=C1\S/C(=C\c2cccn2-c2ccc(Cl)cc2)C(=O)N1C | 4.39%
CC(=O)N1CC(=O)Nc2ccc(C)cc2C1c1ccccc1 (stereo not shown) | 4.88%
CCc1cc2c(cc3c(=O)n(CC(=O)NCc4ccc(OC(C)C)cc4)nc(CC)n32)s1 | 6.35%
CCc1cc2c(NCc3ccccc3)ncnc2s1 | -4.73%
CCOc1ccc2c(c1)C(C)=CC(C)(C)N2S(=O)(=O)c1ccc(C)cc1 | -2.32%
CCc1ccc(-c2[nH]nc3nc(-c4ccc(O)c(OC)c4)cc(C(=O)O)c23)cc1 | -2.07%
CC(C)N(Cc1ccccc1)C(=O)Cc1noc2ccccc12 | 1.51%
COCCCN1CN(Cc2ccccc2)CNC1=S | -7.56%

SMILES | % Inhibition @ 10 uM
COc1ccc(CCNC(=O)c2ccc(CS(=O)c3ccccc3Cl)o2)c(OC)c1OC (stereo not shown) | -1.86%
CC(=O)NC1=C(NCc2ccccc2)CC(C)(C)CC1=O | 11%
COc1ccc(CNC(=O)C2CC(C)=CCC2C(=O)O)cc1 (stereo not shown) | 1.96%
COc1ccc(-c2cc(C)no2)cc1S(=O)(=O)N1CCCC(CN2CCc3ccccc3C2)C1 (stereo not shown) | -4.57%
Cc1c(Br)c(C(=O)NCc2cc3cc(Cl)ccc3[nH]2)nn1C | 3.72%
CCn1nc(C)c2c(C(F)(F)C(F)(F)F)cc(=O)n(CC(=O)O)c21 | 3.1%
CN(CC(=O)N1CC(=O)N(CCc2ccccc2)C(=O)C1)S(=O)(=O)c1cccc2nsnc12 | -5.1%
CCc1nn(C(CC)C(=O)NCc2ccccc2C)c(=O)c2cc3oc(C)cc3n12 (stereo not shown) | -7.54%
CCC(Oc1ccccc1)C(=O)Nc1ccc(C)cc1 (stereo not shown) | -6.57%
CCn1nccc1C(=O)NC(C)C1CC2CCC1C2 (stereo not shown) | 0.142%
CCOc1ccc(CN2CCN(Cc3ccc4c(c3)OCO4)CC2)cc1 | -5.52%
CCO/C(O)=C1/C(C)=Nc2nc(SCc3ccccc3)nn2C1c1ccc(OC)cc1OC (stereo not shown) | 1.68%
COC1(c2ccc(Cl)cc2)OC(=O)c2ccccc21 (stereo not shown) | -5.01%
CCOc1cc(C2C(C#N)=C(N)OC3=C2C(=O)CCC3)ccc1O (stereo not shown) | -8.11%
CC(Cc1ccccc1F)N1CCN(CCO)CC1 (stereo not shown) | 1.57%
CCC(=O)Nc1sc(Cc2ccccc2)c(C)c1C(N)=O | -4.05%
C(#Cc1ccccc1)CN1CCN(C2CCCCC2)CC1 | -6.09%
COc1ccc(N2CCN(Cc3ccc(OC)c(C)c3)CC2)cc1 | -0.0404%
CCN(CC)c1nc(-c2ccccc2)c2cc(Cl)ccc2n1 | 2.05%
O=C(NCc1ccccc1)/C(=C\c1ccc(-c2ccc(Br)cc2)o1)NC(=O)c1ccccc1 | -3.98%
O=C(Cn1cnc2ccc(Br)cc2c1=O)c1cccs1 | -1.32%
COc1ccc(CCNC(=O)c2cc3c(=O)n4cccc(C)c4nc3n2C)cc1OC | 1.39%
CC1=C(C(=O)Nc2cccnc2)C(c2ccc(F)cc2)C2=C(O)CC(c3ccccc3)CC2=N1 (stereo not shown) | 0.687%
CSC1=NSC2=NC(=O)/C(=C\c3cc(C)n(-c4ccccc4)c3C)C(=N)N12 | -0.503%
C#CCOC(=O)c1ccccc1C(=O)Nc1ccc(Br)cc1 | -2.62%

SMILES | % Inhibition @ 10 uM
OCCN1CCN(Cc2ccc(O)cc2)CC1 | 0.526%
Cc1c2cnn(CC(=O)NCCCN3CC(C)CC(C)C3)c(=O)c2c(C)n1Cc1ccccc1 (stereo not shown) | -3.96%
c1ccc(C2CCC(NCCCN3CCOCC3)CC2)cc1 (stereo not shown) | 4.75%
O=C(CCCC(=O)c1ccccc1)Nc1nc[nH]n1 | 0.238%
CCOc1ccccc1C(=O)Nc1cccc(Cl)c1 | -3.49%
CCO/C(O)=C1/C(C)=NC2=C(C(=O)CC(c3ccccc3)C2)C1c1ccc(Cl)cc1 (stereo not shown) | 1.43%
N#Cc1ccc(Oc2ccc(C(=O)OCC(=O)c3ccccc3)cc2)cc1C#N | -6.2%
CC1CC(C)CN(C(=O)CNS(=O)(=O)c2ccc(Br)s2)C1 (stereo not shown) | -3.36%
CCn1nc(NC(=O)c2cccc(Cl)c2)c2cc3cccc(C)c3nc21 | -4.42%
Cc1cccc(-c2cc(C(=O)Nc3cccnc3)c3ccccc3n2)c1 | 13%
O=c1oc2ccccc2n1-c1nc2ccccc2o1 | 0.687%
CC(=O)C1(c2ccccc2)CCN(S(=O)(=O)c2ccccc2F)CC1 | 5.43%
COCCNC(=O)C1CCCN(S(=O)(=O)N(C)C2CCCCC2)C1 (stereo not shown) | -2.86%
Cc1ccc2nc(O)c3cc(C(=O)NCCCN(C)Cc4ccccc4)sc3c2c1 | -1.66%
Cc1nn2c(=O)cc(COc3ccc(/C=C(\C#N)c4nc5ccccc5[nH]4)cc3Cl)nc2s1 | -2.19%
Cc1cc(-c2ccc(C(C)C)cc2)n(-c2ccccn2)n1 | -3.13%
O=C(Cn1cnc2ccccc2c1=O)c1ccccc1 | -4.67%
Cc1cc(C)nc(NS(=O)(=O)c2ccc(Nc3nc(-c4sc(N)nc4C)cs3)cc2)n1 | -0.088%
Cc1cc(Oc2ccc(=O)n(C)n2)nc(SCc2ccccc2)n1 | 1.31%
O=C(Cc1ccccc1)Nc1ccc(C(=O)O)cc1 | 10.6%
CC(C)C[C@H](NC(=O)[C@@H]1CSC(=S)N1)C(=O)NCC#N | 1.71%
O=C(NCc1cccn1Cc1ccccc1)NC12CC3CC(CC(C3)C1)C2 | 2.65%
C=CCc1cccc2cc(-c3nc4ccccc4[nH]3)c(=O)oc12 | -2.6%
O=C1C2C(C(=O)N1CC13C[C@H]4C[C@@H](C1)C[C@@H](C3)C4)C1C=CC2C12CC2 (stereo partly shown) | -8.64%
COc1cccc(C2C(C#N)=C(N)Oc3[nH]nc(-c4ccc(C)cc4)c32)c1 (stereo not shown) | -0.968%
